According to patent publication US20140105855A1 (published 2014):

Target: T1, preformed IL-17RC-IL-17F complex (IL-17F captured by immobilised IL-17RC) (;human, UniProt Q8NAC3 21-538; Q96PD4 31-163, biotin on the C-terminal BirA ligase tag)
T1 chain 1: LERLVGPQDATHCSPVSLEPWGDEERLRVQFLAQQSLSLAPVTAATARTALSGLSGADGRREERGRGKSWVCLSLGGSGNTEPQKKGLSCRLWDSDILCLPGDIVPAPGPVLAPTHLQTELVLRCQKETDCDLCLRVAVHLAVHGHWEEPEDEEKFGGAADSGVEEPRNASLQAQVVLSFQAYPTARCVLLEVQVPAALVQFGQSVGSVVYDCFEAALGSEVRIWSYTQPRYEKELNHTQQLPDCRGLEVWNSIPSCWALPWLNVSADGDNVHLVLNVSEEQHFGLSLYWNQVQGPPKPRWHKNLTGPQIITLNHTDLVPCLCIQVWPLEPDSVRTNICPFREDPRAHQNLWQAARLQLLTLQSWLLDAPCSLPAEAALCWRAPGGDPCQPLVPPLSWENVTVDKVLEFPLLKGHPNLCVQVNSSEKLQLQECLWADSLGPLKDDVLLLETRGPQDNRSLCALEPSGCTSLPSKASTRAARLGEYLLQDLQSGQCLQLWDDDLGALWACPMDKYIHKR
T1 chain 2: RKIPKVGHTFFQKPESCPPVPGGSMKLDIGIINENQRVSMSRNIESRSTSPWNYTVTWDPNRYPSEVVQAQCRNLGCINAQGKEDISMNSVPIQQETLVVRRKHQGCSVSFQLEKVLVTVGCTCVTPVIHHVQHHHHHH
Experiment: SPR; second receptor binding to preformed complex

B1: IL-17RA extracellular domain (ECD) (receptor)
chain: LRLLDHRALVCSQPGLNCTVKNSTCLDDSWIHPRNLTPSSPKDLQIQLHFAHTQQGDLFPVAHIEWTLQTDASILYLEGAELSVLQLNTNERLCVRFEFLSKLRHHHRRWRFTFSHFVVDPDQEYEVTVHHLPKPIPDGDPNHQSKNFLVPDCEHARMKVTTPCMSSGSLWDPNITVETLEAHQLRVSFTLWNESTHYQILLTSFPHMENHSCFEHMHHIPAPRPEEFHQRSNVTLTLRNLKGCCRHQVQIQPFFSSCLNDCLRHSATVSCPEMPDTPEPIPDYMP
  Kd: 23.8 µM
